The campaign covered roughly 150,000 compounds. About 540 (0.36%) showed an effect of 50% or more. Some of the results follow.
The compounds below were run on Plasmodium falciparum (assay: Primary screen in NF54 nanoGlo assay, in single point, at 2uM, 72h; a lower Z score goes with more inhibition). Conditions: timepoint 72 hour.
Assay type: functional, Erythrocyte

| Structure (SMILES) | % Inhibition [%] | Z score |
| --- | --- | --- |
| CCc1cc(NCCS(=O)(=O)N(C)C)ncn1 | -10 | 1.27 |
| Cc1nc2n(c1C(=O)N(C)C)CCN(C(=O)c1cc(C(F)(F)F)n[nH]1)C2 | 10 | -1.37 |
| COc1ccc2c(c1)[C@H](C(=O)N(CCC(=O)O)C(C)C)CCC2 | -13 | 1.82 |
| CCc1ccccc1OCCC(=O)N1CC2(CCOC2)C1 | -4 | 0.63 |
| CN(C[C@H]1COCCO1)c1nnnn1CCc1c[nH]c2ccccc12 | -8 | 0.88 |
| CC(=O)Nc1cccc(C2OC(=O)N(Cc3ccccc3)C2C(=O)NC2CC2)c1 (stereo unspecified) | 2 | -0.3 |
| Cc1ccc(F)c2[nH]c(C(=O)N3CCCS(=O)(=O)C[C@@H]3C)cc12 | 1 | -0.13 |
| CCOC(=O)C1c2cnc(Nc3ccc(C)c(Cl)c3)n2C(=O)NC1c1ccc(C(C)(C)C)cc1 (stereo unspecified) | -3 | 0.36 |
| O=C(c1cc(F)ccc1F)N1CCCCS1(=O)=O | 5 | -1.09 |
| Nc1ncc(S(=O)(=O)NCc2ccccc2)cn1 | -20 | 2.45 |
| C[C@H](NCCCN1CCCC1=O)c1cnccc1NC(=O)OC(C)(C)C | 25 | -2.84 |
| CC[C@@H](C(=O)Nc1ccc2nc(NC(=O)c3ccccc3)sc2c1)c1ccccc1 | -5 | 0.46 |
| COC(=O)C[C@H]1CCCN1C(=O)C(C)(C)CN1CCOCC1 | 1 | -0.2 |
| CCCCc1nc(N2CCN(C(=O)c3ccc(F)cc3)CC2)c2c(-c3ccccc3)noc2n1 | -1 | 0.13 |
| CC1CN(C(=O)CCCS(=O)(=O)N2CCCC2)C(C)CN1C (stereo unspecified) | 0 | -0.05 |
| Cc1cc(NC(=O)N2CCC[C@@H]2CS(N)(=O)=O)nn1C | 3 | -0.45 |
| CCOc1cccc(C(=O)N[C@H]2CCN(Cc3ccccn3)C[C@@H]2O)c1 | 2 | -0.4 |
| NC(=O)c1c[nH]c(-c2noc(C3CCc4ccccc4CC3)n2)c1 | -6 | 0.71 |
| COc1ccc(F)cc1-c1c(-c2ccccc2)ncn1CCc1cnccn1 | -9 | 0.85 |
| COc1ccc(-c2n[nH]c(C3CC3)c2NC(=O)c2ccc(OC)c(OC)c2)c(OC)c1 | -3 | 0.56 |
| N#CCOc1cc(OCC#N)c(Cl)cc1Cl | -16 | 3.01 |

| Structure (SMILES) | % Inhibition [%] | Z score |
| --- | --- | --- |
| O[C@H]1CN(Cc2ccc(-n3ccnc3)cc2)CC[C@@H]1c1ccc(F)cc1 | -4 | 0.51 |
| Cc1cc(S(N)(=O)=O)sc1C(=O)N[C@H]1CCc2ccccc21 | -10 | 1.24 |
| CC(CNC(=O)NC(C)C1CCOCC1)c1cccs1 (stereo unspecified) | -13 | 1.74 |
| COCCn1nnc2cc(S(=O)(=O)N3CCC[C@H](C(=O)NC4CC4)C3)ccc21 | -20 | 3.23 |
| CNC(=O)C[C@H](C)N(C)C(=O)c1cc(C)c(C)[nH]c1=O | -5 | 0.79 |
| Cc1ncccc1Oc1ncnc(N[C@H]2CCS(=O)(=O)C2)c1C | -5 | 0.5 |
| COc1ccc(NS(=O)(=O)c2ccc(N3CCOCC3)c(N)c2)cc1 | -4 | 0.46 |
| COc1ccc(CN(CCC(C)C)C[C@H](O)COC(C)(C)C)cc1OC | -5 | 0.78 |
| COc1cncc(Br)c1N | -1 | 0.11 |
| COCCNC(=O)c1nn(CCC(C)C)c2c1CN(C(=O)c1cc(C)nn1C)CC2 | -1 | 0.08 |
| CCCn1cc(-c2cc(C(=O)N3CCC[C@@H]3C)c3ccc(C)c(C)c3n2)cn1 | 7 | -1.05 |
| COCCCNC(=O)CCn1cnc2c(-c3ccc(F)cc3)noc2c1=O | 0 | -0.06 |
| O=C(O)C[C@@H]1CCN(C(=O)c2ccco2)C[C@@H]1CCN1CCN(c2ccccc2)CC1 | 25 | -2.87 |
| CC(C)CS(=O)(=O)[C@H]1CCCN(C(=O)NC(c2ccccc2)c2ccccc2)C1 | -16 | 2.07 |
| CS(=O)(=O)N1C[C@H]2CC[C@@H](C1)N(C(=O)c1ccc3[nH]nnc3c1)C2 | -7 | 1.17 |
| Cc1cnc(-n2ncc(C(=O)N3CCCC3)c2C2CC2)nc1-c1cccs1 | -6 | 0.66 |
| O=C(Nc1ccc(Cl)cc1)[C@H]1CCCC[C@H]1C(=O)NCc1cc[nH]n1 | -21 | 2.63 |
| O=C([C@@H]1COc2cc(S(=O)(=O)NCc3ccc4c(c3)OCO4)ccc2O1)N1CCOCC1 | 10 | -1.04 |
| Cc1cccc([C@@H](NC(=O)c2ccccc2-c2nnn[nH]2)C2CC2)n1 | -4 | 0.58 |
| CCc1ccc([C@H](COC)NS(=O)(=O)CCCN(C)C)o1 | 0 | -0.02 |
| CCC[C@@H]1NC(C)(C)N(CCOC)C1=O | -10 | 1.16 |

| Structure (SMILES) | % Inhibition [%] | Z score |
| --- | --- | --- |
| COCc1nc(CNC(=O)COc2ccccc2Cl)no1 | -10 | 1.62 |
| NS(=O)(=O)N1CC(O)CC1C1CCCCC1 (stereo unspecified) | -6 | 0.83 |
| COC(=O)c1ccc2c(c1)NCC1(CC1)O2 | -5 | 0.96 |
| O=C(N[C@H]1CCCCNC1=O)C1CCCCC1 | -6 | 0.77 |
| CCCCCNC(=O)NCc1ncoc1C | 31 | -0.39 |
| Clc1ccc(CN2CCO[C@@H](Cn3cccn3)C2)s1 | -9 | 0.84 |
| CN(C[C@@H]1CC=CCC1)S(=O)(=O)CC1CN(S(C)(=O)=O)C1 | -2 | 0.25 |
| COc1cc(C(=O)Nc2ccc3nn(-c4cccc5ccccc45)nc3c2)cc(OC)c1OC | 9 | -1.44 |
| COc1ccccc1N1CCN(c2nc(Nc3ccc(C)c(C)c3)c3nccnc3n2)CC1 | -10 | 1.56 |
| C[C@H]1CN(C(=O)c2cc(C#N)cn2C)CCS1(=O)=O | -10 | 0.84 |
| COc1cccc(CN(Cc2scnc2C)C2CCC(O)CC2)c1 (stereo unspecified) | -3 | 0.23 |
| Cc1oc(-c2cccc(F)c2)nc1CN1CC[C@]2(CCCO2)CCC1=O | -12 | 2.15 |
| CN1CCC2(CC1)CCN(S(=O)(=O)c1c(F)cccc1F)C2 | -8 | 1.5 |
| O=C(Cc1cccnc1)N[C@H]1CCN(c2ccc(Cl)c(F)c2)C1 | -6 | 0.71 |
| O=C(c1cccnc1)N1C[C@@H]2C[C@@H](O)CN2C2(CN(Cc3ccc4c(c3)OCO4)C2)C1 | 1 | -0.13 |
| CC1CCCCC1NC(=O)c1ccc(-n2cccn2)nn1 (stereo unspecified) | -9 | 1.75 |
| CCCn1cc(NC(C)C2CCCN(C(=O)OC(C)(C)C)C2)cn1 (stereo unspecified) | -6 | 0.87 |
| Cc1cccc(N2CCN(C(=O)c3nc4cccnc4n(C)c3=O)CC2)c1C | 3 | -0.38 |
| COCC(=O)Nc1cnn(-c2cccc(C(=O)N3CCN(c4cccc(OC)c4)C(=O)C3)c2)c1 | -11 | 2.14 |
| Cc1n[nH]c(C)c1NC(=O)Nc1ccnn1Cc1cccs1 | -10 | 1.09 |
| Cc1cccc(CN(Cc2ccccc2)C(=O)c2nnc(C)o2)n1 | 4 | -0.55 |

| Structure (SMILES) | % Inhibition [%] | Z score |
| --- | --- | --- |
| COC(=O)C[C@H](c1c(Cc2ccc(OC)cc2)[nH][nH]c1=O)c1ccnn1C(C)C | -12 | 1.58 |
| O[C@H](COc1ccc(F)cc1)Cn1nnc(-c2ccco2)n1 | -9 | 1.55 |
| CN(CCc1ccccc1)[C@@H]1[C@H](O)[C@H](CO)O[C@@H]1CNC1CCCCC1 | 9 | -1.1 |
| O=C(C1CCCC1)N1CCN(C[C@H](O)c2ccco2)CC1 | -5 | 0.77 |
| Cc1nocc1Cc1noc(Nc2ccccc2)n1 | -15 | 2.59 |
| CC1(C)CN(S(=O)(=O)CC2CCCCC2(F)F)C1c1cccnc1 (stereo unspecified) | 14 | -1.77 |
| Cc1ccc(S(=O)(=O)c2ccc(C(=O)NC(C)C)s2)cc1 | 0 | 0.02 |
| O=C(Nc1ccccc1N1CCCN(Cc2ccc(OC(F)(F)F)cc2)C1=O)OCc1ccccc1 | 9 | -1.85 |
| O=C(c1cnn2c(-c3ccc(Cl)c(Cl)c3)ccnc12)N1CCc2ccccc2C1 | -17 | 3.01 |
| CCCCS(=O)(=O)N[C@@H](C)Cn1cncn1 | 2 | -0.18 |
| COc1ccc(CNC(=O)Cn2c(=O)n(C)c(=O)c3c2c(-c2ccccc2)cn3C)cc1OC | -10 | 1.58 |
| O=C(NCCCc1nc(=O)[nH][nH]1)C1CCCCCC1 | 10 | -1.02 |
| COc1ccc(N[C@@]2(c3ccccc3)c3ccccc3C(=O)N2c2ccc(OC)cc2)cc1 | 3 | -0.38 |
| CCN(CC)C(=O)c1nc(CNC(=O)c2cccn2C)oc1C | -17 | 2.25 |
| COc1ccc2c(c1)CN(C(=O)C(C)N)C(c1ccccc1)C2 (stereo unspecified) | 15 | -1.67 |
| Cc1cc(C)nc(N2CCN(C(=O)Nc3cccc(-c4cnc[nH]4)c3)CC2)n1 | -8 | 1.52 |
| O=C(Nc1nc2c(s1)CN(Cc1ccccc1)CC2)[C@H]1CCS(=O)(=O)C1 | 12 | -2.18 |
| CN(Cc1cscn1)C(=O)C1CC12CCCc1ccccc12 (stereo unspecified) | -13 | 2.47 |
| Cc1ccc(S(=O)(=O)Nc2ccc(C)n(CC(=O)N3CCCN(C)CC3)c2=O)cc1 | -13 | 1.72 |
| C[C@@H](CCc1cccn1C)Nc1ccccc1S(C)(=O)=O | 1 | -0.21 |
